Patent publication US20140057851A1, “Anti-Angiogenic Gene Therapy With Soluble VEGF Receptors -1, -2 and -3 Together With Paclitaxel Prolongs Survival Of Mice With Human Ovarian Carcinoma” (WKD Holding Oy, priority 2012, published 2014)
Where two headings read alike, the source gives them in different places.

Test system: SKOV-3m cells
Conditions: for mean survival: after start of treatment
[1] = at the end of the follow-up, mean ± SEM
[2] = study groups at the end of the follow-up, mean ± SEM

Compound | mean survival (mean ± SEM) | Tumor weight (mean, g) [1] | MRI volume (mean, mm^3) [2] | MRI volume (mean, mm^3) (mouse, in vivo) | Tumor weight (mean, g) (mouse, in vivo) | effect on mean tumor weight (result in words) | effect on survival (result in words) | effect on tumor volume (result in words)
N.N.O=C([O-])C1(C(=O)[O-])CCC1.[Pt+2] [Carboplatin] | 13 ± 1 days | 2.0 ± 0.3 g | 1174.6 ± 279 mm^3 |  |  |  |  | 
CC(=O)O[C@H]1C(=O)[C@@]2(C)[C@H]([C@H](OC(=O)c3ccccc3)[C@]3(O)C[C@H](OC(=O)[C@H](O)[C@@H](NC(=O)c4ccccc4)c4ccccc4)C(C)=C1C3(C)C)[C@]1(OC(C)=O)CO[C@@H]1C[C@@H]2O [Paclitaxel] | 15 ± 1 days |  |  | 1333.5 ± 356 mm^3 | 3.1 ± 0.6 g |  |  | 
Bevacizumab |  | 2.7 ± 0.4 g | 1342.1 ± 184 mm^3 |  |  | did not have any significant effect | did not have any significant effect | did not have any significant effect
